Hit rate of the full screen: of about 340,000 compounds, about 6,900 (2%) were called active. Cut-off read from the data, not from the text of the source: active = inhibition above about 30%; inactive = below that, where a call was filed. This is a selection; strong and weak results do not stand in their true shares. The source gives no active or inactive call for entries shown without one.

UniProt P14416, sequence (P14416 whole entry, looked up): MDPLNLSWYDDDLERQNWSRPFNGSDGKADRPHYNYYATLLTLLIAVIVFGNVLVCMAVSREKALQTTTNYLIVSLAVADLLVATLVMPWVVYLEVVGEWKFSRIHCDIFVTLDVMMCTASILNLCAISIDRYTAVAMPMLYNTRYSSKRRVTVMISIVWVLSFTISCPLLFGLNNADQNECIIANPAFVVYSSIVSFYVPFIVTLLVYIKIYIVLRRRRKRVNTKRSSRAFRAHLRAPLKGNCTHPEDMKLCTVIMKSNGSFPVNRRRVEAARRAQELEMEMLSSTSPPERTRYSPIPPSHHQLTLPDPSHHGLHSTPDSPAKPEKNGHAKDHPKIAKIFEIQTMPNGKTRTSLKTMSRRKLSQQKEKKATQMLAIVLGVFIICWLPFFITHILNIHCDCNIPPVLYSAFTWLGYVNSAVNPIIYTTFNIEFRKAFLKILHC

The experiment deals with D(2) dopamine receptor (Homo sapiens) (UniProt P14416). The experiment in a line: HTS Assay for Allosteric Antagonists of the Human D2 Dopamine Receptor: Primary Screen for Antagonists. Note: 0% is about no effect. The settings on record: HEK293 TREx D2 cells, calcium flux, dopamine EC80; at 10 µM; stronger effect = higher value. The method in brief:
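Tetracycline-induced HEK293 T-REx cells expressing D2 force-coupled to calcium signalling were dye-loaded, exposed to compound for 180 s, then challenged with an EC80 of dopamine; calcium flux was followed kinetically for a further 180 s.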
For `CCOC(=O)CSc1ccc2nnc(CCNS(=O)(=O)c3ccccc3)n2n1`, the inhibition (as a rule, the change of the read-out against control, counted positive when it falls) turned out to be 15.6%.

As for `Cc1ccc(N(CC(=O)N2CCN(c3ccccc3F)CC2)S(=O)(=O)c2c(C)noc2C)cc1`, the inhibition was -18.1%.

For the compound `COc1cc2c(cc1OC)C(c1ccc(F)cc1)N(c1cccc(C#N)c1)C(=O)C2` (stereo unspecified), the inhibition was -0.417%.

Consider `O=C(Nc1cccc(C(=O)OCc2cc(=O)n3nc(C4CC4)sc3n2)c1)c1cccc(F)c1`, for which the inhibition turned out to be 0.176%.

As to `Cc1ccc(S(=O)(=O)c2nc(-c3cccs3)oc2SC(C)c2ccccc2)cc1` (stereo unspecified), the inhibition was 6.41%.

Take `CCOC(=O)c1noc2ncn(CC(=O)Nc3ccc(OC)c(Cl)c3)c(=O)c12`: the inhibition was found to be 2.62%.

As for `CCOc1ccc(CC(=O)NCCS(=O)(=O)N2CCN(c3ccccc3OC)CC2)cc1`, the inhibition stood at 28%.

Consider `CCS(=O)(=O)N1CCc2cc(C(=O)N3CCN(c4ccccc4)CC3)ccc21`, for which the inhibition is -26.8%.

`CCCCC(=O)Nc1cc(-c2nc3ccccc3o2)ccc1OC`: the inhibition was -7.4%.

Take `CCOC(=O)C1CCCN(Cc2nc(N)nc(Nc3ccccc3OC)n2)C1` (stereo unspecified): the inhibition was active: 34.4%.

For the compound `COc1ccc(C)cc1NC(=O)c1ccc2c(c1)N(Cc1cccc(Cl)c1)C(=O)c1ccccc1S2=O` (stereo unspecified), the inhibition came to 11.7%.

`O=[N+]([O-])c1ccc(Cl)c(S(=O)(=O)Nc2cccc(-c3ccc(N4CCOCC4)nn3)c2)c1`: the inhibition was active: 34.2%.

Turning to `Cc1ccc(C)c(NC(=O)c2ccc(=O)n(Cc3ccc(F)cc3)c2)c1`, the inhibition was -1.65%.

In the case of `Clc1cccc(N2CCN(c3nc4ccccc4c4nc(-c5cccnc5)nn34)CC2)c1`, the inhibition is -5.27%.

Turning to `CC(=O)N1c2ccc(S(=O)(=O)N3CCCCCC3)cc2CC1C(=O)NCc1cccc(F)c1` (stereo unspecified), the inhibition turned out to be 13%.

As for `CC1Oc2ccccc2N(CC(=O)NC2CC2)C1=O` (stereo unspecified), the inhibition was active: 32.7%.

For `COc1cc(C)ccc1OCCSc1nc2ccc(NC(=O)c3ccc4c(c3)OCO4)cc2s1`, the inhibition was -2.46%.

On to `CCOC(=O)c1cc(-c2ccccc2)n(CCC(=O)Nc2ccc(OC)c(Cl)c2)c1C`, for which the inhibition is -0.463%.

As to `Cc1ccccc1-c1nc2c(c(SCc3cccc(Cl)c3)n1)Cc1c(CO)cnc(C)c1O2`, the inhibition is -8.43%.

Regarding `CCc1ccc(NC(=O)Cn2c(=O)n(CCCC(=O)NCc3ccccc3OC)c(=O)c3ccccc32)cc1`, the inhibition is -3.76%.

`CC(C)N(C(=O)N1CCN(c2ccnc3cc(Cl)ccc23)CC1)C(C)C`: the inhibition was active: 30.5%.

For `COc1cc(-c2nc(Cn3nnc(C(=O)Nc4ccccc4C)c3C)c(C)o2)cc(OC)c1OC`, the inhibition was -8.14%.

For the compound `CCOc1ccc(-c2cc(C(=O)NCc3ccc(OCC)c(OC)c3)[nH]n2)cc1`, the inhibition was -2.15%.

`COc1ccc(-c2ccc(NS(=O)(=O)c3ccccc3)cc2)nn1`: the inhibition is -3.87%.

As for `CCc1cccc(CC)c1NC(=O)CCS(=O)(=O)c1ccc(Br)cc1`, the inhibition is 8.43%.

For `O=c1c2sc3ccccc3c2n(Cc2ccc(F)cc2)c(=O)n1Cc1ccccc1`, the inhibition was 13.2%.
